Reference: PubChem BioAssay (NCI)
Several values for one entry are separate records, joined by “and”; a condition that tells them apart may be missing. Equal entries are not always repeated.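 Dose response: 5 concentrations. Exposure: 48 h. Format: 96-well plates. Endpoint: linear interpolation; highest concentration if not reached. GI50 is the concentration that inhibits growth by half. The concentration for full growth arrest is given as TGI.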 Peptide text beside a SMILES is read from it. * marks the point of attachment. Cbz = O=C(OCc1ccccc1)*

What follows are compounds tested on NCI-H322M lung (assay: NCI anticancer screen, dose series, 48 h).

SMILES | TGI | GI50 [µM]
N/C(=N\S(=O)(=O)c1ccc(-c2ncccc2C(F)(F)F)s1)Nc1ccc(Cl)cc1 | 27.6 µM | 
Cn1cc(-c2csc(-c3cn(C)c4ccc(F)cc34)n2)c2cnccc21 | 3.23 µM | 1.81
CC1(C)O[C@H]2OC(CO)C(N=[N+]=[N-])[C@H]2O1 (some centres not stated) | > 100 µM | 
CN(C)CCNc1nc2ccccc2c2c(=O)c3cc(F)ccc3sc12 | 2.92 µM | 1.57
Cc1sc2c(c1C)C(c1ccc(Cl)cc1)=N[C@@H](CC(=O)Nc1ccc(OCCOCCOCCOCCNc3cccc4c3C(=O)N(C3CCC(=O)NC3=O)C4=O)cc1)c1nnc(C)n1-2 (some centres not stated) | > 100 µM | < 0.0472
O=C1c2ccccc2OCC12OC21C=CC(Cl)=CC1 (configuration not stated) | 79.4 µM | 
Cc1ccc2[c](c1)[Sn]([c]1ccccc1)([c]1ccccc1)[c]1cc(C)ccc1N2C | > 100 µM | 58.1
CC(NC(=O)Cc1ccccc1)NC(=O)C(C)C(=O)NCc1ccccc1 (configuration not stated) | > 100 µM | 
CN1C(NNC(=O)c2cccnc2)=NS(=O)(=O)c2cc(Cl)ccc21 | > 100 µM | > 100
COc1ccc(/C(Cl)=C(\C#N)c2ccc(OC)c(OC)c2)cc1OC | > 100 µM | 
S=C1NCCN1C(=S)Nc1ccccc1 | > 100 µM | 
C=CC1(CC[C@]2(c3ccc(OC)c(OC)c3)C=[N+]([O-])O[C@H](O[C@@H]3CCCC[C@H]3C(C)(C)c3ccccc3)C2)OCC(C)(C)CO1 | > 67 µM | 
CCc1nc(Cl)c(Cl)c(Cl)n1 | > 100 µM | 
COC(=O)C(=O)CC(=O)c1cccc(OC)c1 | > 100 µM | 
O=[N+]([O-])c1ccc(Sc2c3ccccc3nc3ccccc23)cn1 | > 70.3 µM | 
O=C1CC2CCN(C(=O)c3ccccc3)CC2CCN1 (configuration not stated) | > 100 µM | 
NC(=O)c1cn(Cc2ccccc2)c(=O)n1Cc1ccccc1 | > 100 µM | 
C[P+](C)(C)c1ccccc1 | > 100 µM | 
CC1CC(Nc2ccc(Br)cc2)N(C(=O)c2ccc(Br)cc2)O1 (configuration not stated) | > 10 µM | 
CC(=O)Nc1c(C(=N)C#N)ncn1CCO | > 100 µM | 
CSc1ccc2c(cc1=O)[C@@H](NC(=O)c1cc(O)c(O)c(O)c1)CCc1cc(O)c(O)c(O)c1-2 | 35.9 µM | 
CCc1cccc(C)c1NC(=O)CC1C(=O)Nc2ccccc2S1=O (configuration not stated) | > 100 µM | 
Cc1ccc2c(c1)CC1(Cc3cccc(C)c3C1=O)C2=O (configuration not stated) | > 100 µM | 
CCOc1cc(NC(C)=O)ccc1C(=O)NNS(=O)(=O)c1ccc(NC(C)=O)cc1 | > 100 µM | 

SMILES | TGI | GI50 [µM]
c1ccc2c(c1)c1ccccc1c1ccccc21 | > 100 µM | > 100
O=C1OCC2OC(=O)c3cc(O)c(O)c(O)c3-c3c(O)c(O)c(O)c4c3C(=O)OC(C2OC(=O)c2cc(O)c(O)c(O)c2-c2c1cc(O)c(O)c2O)C1OC(=O)C2C4=C(O)C(=O)C23Oc2cc(O)c4c(c2[C@H]13)O[C@H](c1ccc(O)c(O)c1)[C@@H](O)C4 (some centres not stated) | > 100 µM | 
O=c1cc(NNc2cccc(Cl)c2)[nH]c(=O)[nH]1 | > 100 µM | 
N#Cc1cc2c(cc1Cl)Sc1nnc(Nc3ccccc3)n1S2(=O)=O | 7.41 µM | 
CNC(C)C(O)c1ccc2oc3cc(=O)c4ccccc4c-3nc2c1 (configuration not stated) | 29.7 µM | 
CCOC(=O)c1sc(NC(=O)COc2cccc(/C=C3\CCc4cc(OC)ccc4C3=O)c2)nc1C | > 100 µM | 31.2
CN(C)CCNC(=O)c1cccc2[nH]c(-c3ccccn3)nc12 | > 100 µM | 
O=C(Cn1c2ccc(Br)cc2c2nc3ccccc3nc21)NNC(=S)NC1CCCCC1 | 67 µM | 
O=c1cc(CF)[nH]c(=S)[nH]1 | > 100 µM | 
Cc1ccc(C)c(N2C(=O)C(=O)C(c3nc4ccccc4o3)/C(=N/N)C2=O)c1 (configuration not stated) | > 100 µM | 
COC(=O)c1c[nH]cc1CCCCc1c[nH]cc1C(=O)OC | > 100 µM | 
COc1ccc(-c2ccc(NNC(=O)c3ccc(F)cc3)nn2)cc1OC | > 100 µM | > 100
CCOP(=O)(OCC)/C(C#N)=C/c1ccc(-c2cc(C(F)(F)F)cc(C(F)(F)F)c2)o1 | 26.2 µM | 
Cc1c2ccc3ccccc3c2c[n+]2ccccc12 | 31.9 µM | 
COc1cc(-c2nnc3n2NC=C(C(=O)O)S3)cc(OC)c1OC | > 100 µM | 
c1ccc2c(c1)OCCOCCOc1ccccc1OCCO2 | > 100 µM | 
CCOC(=O)C(C)(c1c(C)[nH]c2ccccc12)c1c(C)[nH]c2ccccc12 | 45.1 µM | 
COCn1cnc2c(=O)nc(SC)n(-c3ccccc3)c21 | > 100 µM | 
CCOC(=O)CCC(NC(=O)c1ccc(NCc2ccc3nc(-c4ccccc4)c(Cl)nc3c2)cc1)C(=O)OCC (configuration not stated) | > 100 µM | 
COc1ccc2c(c1)c(-c1nc(-c3c[nH]c4ncccc34)cs1)cn2CCCCN1CCCCC1 | 2.98 µM | 1.56
COc1cc(/C=C2\CCC/C(=C\c3ccc(OCC4CO4)c(OC)c3)C2=O)ccc1OCC1CO1 (configuration not stated) | > 100 µM | 5.68
Nc1ccc(C2=N/C(=C\c3cccc(N)c3)C(=O)O2)cc1 | > 100 µM | 
CCCn1cnc2c(SCc3ccc(Cl)cc3)nc(N)nc21 | 80.3 µM | 
O=C1C=C(Nc2ccc(S(=O)(=O)Nc3nccs3)cc2)c2ccccc2C1=O | > 100 µM | 

SMILES | TGI | GI50 [µM]
CC(C)(C)OC(=O)N1C2CCCC23O[C@@H]1c1cc2c(cc1C3=O)OCO2 (some centres not stated) | > 100 µM | 
CCOC(=O)c1c(OCC)[nH]c(=O)c(C(c2cccs2)c2c(O)c(C(=O)OCC)c(OCC)[nH]c2=O)c1O | 52.1 µM | 
Cc1[nH]n(-c2nc(O)c(-c3ccccc3)c(=O)[nH]2)c(=O)c1CCO | > 100 µM | 
NC1(CCNC(=O)c2ccccc2)CCN(C(=O)c2ccccc2)CC1 | > 100 µM | 
CN1CCCOC(c2ccc(Cl)cc2)O1 (configuration not stated) | > 100 µM | 
CCCCC1C=Cn2c(=O)oc3c(OC(C)C)c(C)c(O)c1c32 (configuration not stated) | 12.6 µM | 
O=C1/C(=C/N2N=C(c3ccc4ccccc4c3)CC2c2ccccc2O)SC(=S)N1c1cccnc1 (configuration not stated) | > 100 µM | 4.91
C=C1C(O)C2C(=C(C)C13CC3)C(=O)C(C)(C)C2OC (configuration not stated) | > 100 µM | > 100
COc1cc2c(cc1OC)C1Cc3cc(OC)c(OC)cc3N1CC2 (configuration not stated) | > 100 µM | 
COc1cc2c3c(n(CCCN(CCO)CCO)c(=O)c2cc1OC)-c1cc2c(cc1C3=O)OCO2 | 0.815 µM | 0.153
CCCO[C@@H]1[C@@H](OC(C)=O)[C@@H](OC(C)=O)C(C)(C)/C=C/[C@H](C)C(=O)[C@@]2(OC(C)=O)C[C@@](C)(OC(C)=O)[C@H](OC(C)=O)[C@@H]2[C@H]2OC(=O)CC[C@@]12OC(=O)c1ccccc1 | > 25 µM | 
CCOC(=O)CCC(NC(=O)C(Cc1ccccc1)NC(=O)OCc1ccccc1)C(=O)OCC (stereo not drawn) (Cbz-Phe-Glu(OEt)-OEt; configuration not given here) | 31.3 µM | 
CCCC(=O)[O-].CCCC(=O)[O-].NCCN.NCCN.[Co+3].[O-][Cl+3]([O-])([O-])[O-] | > 100 µM | 
Cc1ccc2occ/c(=N\Nc3ccccc3)c2c1 | > 100 µM | 
C=CCC1(C)CCCCC1(O)CS(=O)c1ccccc1 (configuration not stated) | > 100 µM | 
COc1ccc(-c2noc(N)c2-c2cc(OC)c3c(c2)OCO3)cc1 | > 100 µM | 6
Cc1noc2c1-c1ccccc1C(c1ccc(Cl)cc1)=N[C@H]2CC(N)=O | > 100 µM | 7.34
NC(=O)CNc1ccc([As]=[As]c2ccc(NCC(N)=O)cc2)cc1 (configuration not stated) | 51.2 µM | 16.4
CC(=O)[CH-]C(=O)c1ccccc1.CC(=O)[CH-]C(=O)c1ccccc1.O=S(=O)([O-])c1cc([O-])c2c([O-])cc(S(=O)(=O)[O-])cc2c1.[Na+].[Ti+4] | > 100 µM | > 100
O=C1C=CC(=CC=C2C=CN(CCCCCCCCCCC(=O)NCCCCCCCCCCCC(=O)O)C=C2)C=C1 | > 100 µM | 
COc1cc(OC)c2sc(-c3ccc(-n4cncc4-c4cc(OC)c(OC)c(OC)c4)cc3)nc2c1 | > 100 µM | > 100
C/C=C\C(CC(=O)NCC(=O)c1c[nH]c2ccccc12)CC(=O)OC (configuration not stated) | > 100 µM | 
CCCCCCc1cc2cc(C(=O)Nc3ccc(F)cc3)c(=N)oc2cc1O | 73.7 µM | 
CCOC(=O)CCC(NC(=O)OCc1ccccc1)C(=O)NC(CCC(=O)OCC)C(=O)OCC (configuration not stated) (Cbz-Glu(OEt)-Glu(OEt)-OEt; configuration not given here) | > 100 µM | 

SMILES | TGI | GI50 [µM]
Oc1ccc(Oc2cnc3ccccc3n2)cc1 | > 100 µM | > 100
O=c1[nH]nc(Cc2ccc(Cl)cc2)n1/N=C/c1cccs1 | > 100 µM | 
C/C(=N\NC(=S)N1CCCC1)c1nc2ncccc2[nH]1 | > 100 µM | 
CC12CCC(=O)N1c1cccnc1N2 (configuration not stated) | > 100 µM | 
CC(=O)c1ccc2c(c1)C(=O)c1sc(C(C)=O)cc1C2=O | 23.4 µM and 11.5 µM | 
O=C(CCN1CCOCC1)Nc1cccc(-n2cc(-c3ccncc3)c(-c3ccc(Cl)c(O)c3)n2)c1 | 18.5 µM | 5.14
Oc1c(Br)ccc2cccnc12 | > 100 µM | 
COc1ccc2nc3cc(Cl)ccc3c(Sc3ccc(NC(C)=O)cc3)c2c1 | > 52.6 µM | 
CC(=O)c1c(N=[N+]=[N-])c2cccc3c2n(c1=O)CCC3 | 52.8 µM | 
CC1(C)OP(=O)(O)C=C1Sc1ccc([N+](=O)[O-])cc1[N+](=O)[O-] | > 100 µM | 
COc1ccc(-c2cc(Nc3ccnc(N4CCOCC4)n3)on2)cc1 | 20.1 µM | 0.615
O=C1CCSCCC(=O)Nc2ccccc2N1 | > 100 µM | 
CC(=O)O[C@@]12CO[C@@H]1CC(O)[C@@]1(C)C(=O)[C@H](O)C3=C(C)C(O)C[C@@](O)(C(OC(=O)c4ccccc4)C12)C3(C)C (some centres not stated) | > 100 µM | 
O=c1[nH]c2nc3ccccc3c(=O)n2/c1=C/c1cccs1 | > 100 µM | 
NCCCOc1cc2ccccc2cc1C(=O)NCCCOc1cc2ccccc2cc1C(=O)Nc1ccc(Cl)cc1O | 3.05 µM | 1.45
CC(=O)NC1C(Sc2ncn(C3OC(CO)C(O)C(O)C3NC(C)=O)n2)OC(CO)C(O)C1O (configuration not stated) | > 100 µM | 
COc1ccc(C2(CC(C)C)CCN(S(=O)(=O)c3ccc(C)cc3)C2)cc1OC (configuration not stated) | > 100 µM | 
O=C(Nc1ccc(Cl)cc1)Nc1nccs1 | > 100 µM | 10.2
O=C(N[C@@H](Cc1coc2ccccc12)B(O)O)[C@@H]1C[C@H]2CC[C@@H]1O2 | > 100 µM | > 100
C=C(C)[C@@H]1CC[C@]2(C)[C@H](CC[C@@H]3[C@@H]([C@@](C)(O)CCC=C(C)C)CC[C@]32C)[C@@]1(C)CCC(=O)O | 30.9 µM | 16.2
O=C(NC1CCCCC1)c1ccc(Nc2ncnc3c2cnn3-c2ccccc2)cc1 | > 100 µM | 15.8
COC(=O)[C@@H](NC(=O)N(Cc1ccccc1)C[C@H](CC(C)C)NC(=O)[C@@H](NC(=O)OC(C)(C)C)C(C)C)C(C)C | > 100 µM | 
COc1ccc(/C=C/c2cnccn2)cc1OC | > 10 µM | 
COc1cc2nc(-c3cccs3)nc(Cl)c2cc1OC | > 100 µM | 
